According to the supplement of paper PMC8728848:
This is one part of the list.

Key:
Assay in all cases: glycan array binding signal (z-score within array); higher = stronger binding
Details in all cases: glycan notation: IUPAC condensed, linker removed
[1] = biological target: Neu5Ac(a2-3)Gal(b1-4)[Fuc(a1-3)]GlcNAc(b1-3)GalNAc
Summary of the method: (§1)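 Columns mapping to the same glycan were averaged after glycan names were converted to IUPAC-condensed notation. The data come from 3228 arrays in the Consortium for Functional Glycomics database, limited to those with an available protein sequence. Binding is reported as a within-array Z-score averaged across arrays of one protein sequence and across linkers.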

[2] = biological target: Neu5Ac(a2-3)Gal(b1-4)[Fuc(a1-3)]GlcNAc(b1-6)[Gal(b1-3)]GalNAc
Summary of the method: as §1

[3] = biological target: Neu5Ac(a2-3)Gal(b1-4)[Fuc(a1-3)]GlcNAc(b1-6)[Neu5Ac(a2-3)Gal(b1-3)]GalNAc
Summary of the method: as §1

[4] = biological target: Neu5Ac(a2-3)Gal(b1-4)[Fuc(a1-3)]GlcNAc6S
Summary of the method: as §1

[5] = biological target: Neu5Ac(a2-3)Gal6S(b1-4)GlcNAc
Summary of the method: as §1

[6] = biological target: Neu5Ac(a2-3)Gal6S(b1-4)[Fuc(a1-3)]GlcNAc
Summary of the method: as §1

Neu5Ac(a2-3)GalNAc = biological target: Neu5Ac(a2-3)GalNAc
Summary of the method: as §1

[7] = biological target: Neu5Ac(a2-3)GalNAc(b1-4)GlcNAc
Summary of the method: as §1

[8] = biological target: Neu5Ac(a2-3)[GalNAc(b1-4)]Gal(b1-4)Glc
Summary of the method: as §1

[9] = biological target: Neu5Ac(a2-3)[GalNAc(b1-4)]Gal(b1-4)GlcNAc
Summary of the method: as §1

[10] = biological target: Neu5Ac(a2-3)[Neu5Ac(a2-6)]GalNAc
Summary of the method: as §1

Neu5Ac(a2-6)Gal = biological target: Neu5Ac(a2-6)Gal
Summary of the method: as §1

Neu5Ac(a2-6)Gal(b1-4)Glc = biological target: Neu5Ac(a2-6)Gal(b1-4)Glc
Summary of the method: as §1

[11] = biological target: Neu5Ac(a2-6)Gal(b1-4)GlcNAc
Summary of the method: as §1

[12] = biological target: Neu5Ac(a2-6)Gal(b1-4)GlcNAc(b1-2)Man(a1-3)Man(b1-4)GlcNAc(b1-4)GlcNAc
Summary of the method: as §1

[13] = biological target: Neu5Ac(a2-6)Gal(b1-4)GlcNAc(b1-2)Man(a1-3)[Gal(b1-4)GlcNAc(b1-2)Man(a1-6)]Man(b1-4)GlcNAc(b1-4)GlcNAc
Summary of the method: as §1

[14] = biological target: Neu5Ac(a2-6)Gal(b1-4)GlcNAc(b1-2)Man(a1-3)[GlcNAc(b1-2)Man(a1-6)]Man(b1-4)GlcNAc(b1-4)GlcNAc
Summary of the method: as §1

[15] = biological target: Neu5Ac(a2-6)Gal(b1-4)GlcNAc(b1-2)Man(a1-3)[GlcNAc(b1-2)Man(b1-4)GlcNAc(b1-2)Man(a1-6)]Man(b1-4)GlcNAc(b1-4)GlcNAc
Summary of the method: as §1

[16] = biological target: Neu5Ac(a2-6)Gal(b1-4)GlcNAc(b1-2)Man(a1-3)[Man(a1-6)]Man(b1-4)GlcNAc(b1-4)GlcNAc
Summary of the method: as §1

[17] = biological target: Neu5Ac(a2-6)Gal(b1-4)GlcNAc(b1-2)Man(a1-3)[Neu5Ac(a2-6)Gal(b1-4)GlcNAc(b1-2)Man(a1-6)]Man(b1-4)GlcNAc(b1-4)GlcNAc
Summary of the method: as §1

[18] = biological target: Neu5Ac(a2-6)Gal(b1-4)GlcNAc(b1-2)Man(a1-6)Man(b1-4)GlcNAc(b1-4)GlcNAc
Summary of the method: as §1

[19] = biological target: Neu5Ac(a2-6)Gal(b1-4)GlcNAc(b1-2)Man(a1-6)[Gal(b1-4)GlcNAc(b1-2)Man(a1-3)]Man(b1-4)GlcNAc(b1-4)GlcNAc
Summary of the method: as §1

[20] = biological target: Neu5Ac(a2-6)Gal(b1-4)GlcNAc(b1-2)Man(a1-6)[GlcNAc(b1-2)Man(a1-3)]Man(b1-4)GlcNAc(b1-4)GlcNAc
Summary of the method: as §1

[21] = biological target: Neu5Ac(a2-6)Gal(b1-4)GlcNAc(b1-2)Man(a1-6)[Man(a1-3)]Man(b1-4)GlcNAc(b1-4)GlcNAc
Summary of the method: as §1

[22] = biological target: Neu5Ac(a2-6)Gal(b1-4)GlcNAc(b1-3)Gal(b1-3)GlcNAc
Summary of the method: as §1

[23] = biological target: Neu5Ac(a2-6)Gal(b1-4)GlcNAc(b1-3)Gal(b1-4)GlcNAc
Summary of the method: as §1

[24] = biological target: Neu5Ac(a2-6)Gal(b1-4)GlcNAc(b1-3)Gal(b1-4)GlcNAc(b1-3)Gal(b1-4)GlcNAc
Summary of the method: as §1

[25] = biological target: Neu5Ac(a2-6)Gal(b1-4)GlcNAc(b1-3)Gal(b1-4)[Fuc(a1-3)]GlcNAc(b1-3)Gal(b1-4)[Fuc(a1-3)]GlcNAc
Summary of the method: as §1

[26] = biological target: Neu5Ac(a2-6)Gal(b1-4)GlcNAc(b1-3)GalNAc
Summary of the method: as §1

[27] = biological target: Neu5Ac(a2-6)Gal(b1-4)GlcNAc6S
Summary of the method: as §1

Neu5Ac(a2-6)GalNAc = biological target: Neu5Ac(a2-6)GalNAc
Summary of the method: as §1

[28] = biological target: Neu5Ac(a2-6)GalNAc(b1-4)GlcNAc
Summary of the method: as §1

[29] = biological target: Neu5Ac(a2-6)GlcNAc(b1-4)GlcNAc
Summary of the method: as §1

[30] = biological target: Neu5Ac(a2-6)GlcNAc(b1-4)GlcNAc(b1-4)GlcNAc
Summary of the method: as §1

Neu5Ac(a2-8)Neu5Ac = biological target: Neu5Ac(a2-8)Neu5Ac
Summary of the method: as §1

[31] = biological target: Neu5Ac(a2-8)Neu5Ac(a2-3)Gal(b1-4)Glc
Summary of the method: as §1

[32] = biological target: Neu5Ac(a2-8)Neu5Ac(a2-3)[GalNAc(b1-4)]Gal(b1-4)Glc
Summary of the method: as §1

[33] = biological target: Neu5Ac(a2-8)Neu5Ac(a2-8)Neu5Ac
Summary of the method: as §1

[34] = biological target: Neu5Ac(a2-8)Neu5Ac(a2-8)Neu5Ac(a2-3)Gal(b1-4)Glc
Summary of the method: as §1

[35] = biological target: Neu5Ac(a2-8)Neu5Ac(a2-8)Neu5Ac(a2-3)[GalNAc(b1-4)]Gal(b1-4)Glc
Summary of the method: as §1

[36] = biological target: Neu5Ac(a2-8)Neu5Ac(a2-8)Neu5Ac(a2-8)Neu5Ac(a2-3)[GalNAc(b1-4)]Gal(b1-4)Glc
Summary of the method: as §1

[37] = biological target: Neu5Ac(b2-6)Gal(b1-4)GlcNAc
Summary of the method: as §1

Neu5Ac(b2-6)GalNAc = biological target: Neu5Ac(b2-6)GalNAc
Summary of the method: as §1

[38] = biological target: Neu5Ac9Ac(a2-3)Gal(b1-3)GlcNAc
Summary of the method: as §1

[39] = biological target: Neu5Ac9Ac(a2-3)Gal(b1-4)GlcNAc
Summary of the method: as §1

[40] = biological target: Neu5Ac9Ac(a2-6)Gal(b1-4)GlcNAc
Summary of the method: as §1

[41] = biological target: Neu5Gc(a2-3)Gal(b1-3)GlcNAc
Summary of the method: as §1

[42] = biological target: Neu5Gc(a2-3)Gal(b1-3)[Fuc(a1-4)]GlcNAc
Summary of the method: as §1

Neu5Gc(a2-3)Gal(b1-4)Glc = biological target: Neu5Gc(a2-3)Gal(b1-4)Glc
Summary of the method: as §1

[43] = biological target: Neu5Gc(a2-3)Gal(b1-4)GlcNAc
Summary of the method: as §1

[44] = biological target: Neu5Gc(a2-3)Gal(b1-4)[Fuc(a1-3)]GlcNAc
Summary of the method: as §1

[45] = biological target: Neu5Gc(a2-6)Gal(b1-4)GlcNAc
Summary of the method: as §1

Neu5Gc(a2-6)GalNAc = biological target: Neu5Gc(a2-6)GalNAc
Summary of the method: as §1

[46] = biological target: Neu5Gc(b2-6)Gal(b1-4)GlcNAc
Summary of the method: as §1

B1: DETC sTCR (Mus musculus) (protein)
chain: LDVYLEPVAKTFTVVAGDPASFYCTVTGGDMKNYHMSWYKKNGTNALFLVYKLNSNSTDGGKSNLKGKINISKNQFILDIQKATMKDAGTYYCGSDIGGSSWDTRQMFFGTGIELFVEPKSQPPAKPSVFIMKNGTNVACLVKDFYPKEVTISLRSSKKIVEFDPAIVISPSGKYSAVKLGQYGDSNSVTCSVQHNSETVHSTDFEPYANSFNNEKLPEPENDTQISEPCSSADLVPRGSTTAPSAQLKKKLQALKKKNAQLKWKLQALKKKLAQHHHHHHDSWISQDQLSFTRRPNKTVHISCKLSGVPLHNTIVHWYQLKEGEPLRRIFYGSVKTYKQDKSHSRLEIDEKDDGTFYLIINNVVTSDEATYYCACWDSSGFHKVFAEGTKLIVIPSDKRLDADISPKPTIFLPSVAETNLHKTGTYLCLLEKFFPDVIRVYWKEKDGNTILDSQEGDTLKTNDTYMKFSWLTVPERAMGKEHRCIVKHENNKGGADQEIFFPSIKKVAVSTKPTTCSSADLVPRGSTTAPSAQLEKELQALEKENAQLEWELQALEKELAQLNDIFEAQKIEW
glycan array binding signal (z-score) [1]: 2.34
glycan array binding signal (z-score) [2]: -0.339
glycan array binding signal (z-score) [3]: 0.399
glycan array binding signal (z-score) [4]: -0.629
glycan array binding signal (z-score) [5]: -0.272
glycan array binding signal (z-score) [6]: -0.056
glycan array binding signal (z-score) (Neu5Ac(a2-3)GalNAc): -0.074
glycan array binding signal (z-score) [7]: -0.407
glycan array binding signal (z-score) [8]: 2.27
glycan array binding signal (z-score) [9]: -0.551
glycan array binding signal (z-score) [10]: 0.574
glycan array binding signal (z-score) (Neu5Ac(a2-6)Gal): 0.295
glycan array binding signal (z-score) (Neu5Ac(a2-6)Gal(b1-4)Glc): -0.57
glycan array binding signal (z-score) [11]: -0.218
glycan array binding signal (z-score) [12]: -0.505
glycan array binding signal (z-score) [13]: -0.487
glycan array binding signal (z-score) [14]: -0.244
glycan array binding signal (z-score) [15]: -0.565
glycan array binding signal (z-score) [16]: -0.499
glycan array binding signal (z-score) [17]: -0.408
glycan array binding signal (z-score) [18]: -0.588
glycan array binding signal (z-score) [19]: -0.567
glycan array binding signal (z-score) [20]: 0.085
glycan array binding signal (z-score) [21]: -0.062
glycan array binding signal (z-score) [22]: 0.384
glycan array binding signal (z-score) [23]: 0.071
glycan array binding signal (z-score) [24]: 1.72
glycan array binding signal (z-score) [25]: -0.522
glycan array binding signal (z-score) [26]: 1.06
glycan array binding signal (z-score) [27]: 0.228
glycan array binding signal (z-score) (Neu5Ac(a2-6)GalNAc): -0.193
glycan array binding signal (z-score) [28]: -0.568
glycan array binding signal (z-score) [29]: -0.355
glycan array binding signal (z-score) [30]: 5.83
glycan array binding signal (z-score) (Neu5Ac(a2-8)Neu5Ac): 1.06
glycan array binding signal (z-score) [31]: -0.589
glycan array binding signal (z-score) [32]: -0.554
glycan array binding signal (z-score) [33]: -0.216
glycan array binding signal (z-score) [34]: 1.88
glycan array binding signal (z-score) [35]: 0.445
glycan array binding signal (z-score) [36]: -0.568
glycan array binding signal (z-score) [37]: 0.592
glycan array binding signal (z-score) (Neu5Ac(b2-6)GalNAc): -0.773
glycan array binding signal (z-score) [38]: -0.785
glycan array binding signal (z-score) [39]: 0.262
glycan array binding signal (z-score) [40]: -0.574
glycan array binding signal (z-score) [41]: -0.599
glycan array binding signal (z-score) [42]: 0.595
glycan array binding signal (z-score) (Neu5Gc(a2-3)Gal(b1-4)Glc): 0.254
glycan array binding signal (z-score) [43]: 0.873
glycan array binding signal (z-score) [44]: -0.502
glycan array binding signal (z-score) [45]: 0.806
glycan array binding signal (z-score) (Neu5Gc(a2-6)GalNAc): -0.641
glycan array binding signal (z-score) [46]: -0.565
